Test results as given in the supplement of paper PMC4967469.
pIC50: −log10 of the molar value. Lines with a small IC50 respond at low doses; where the fit passes the top or lowest dose, that dose stands as a limit. AUC is the area under the same curve over the 256-fold range up to the top dose, as a fraction: 1 means no effect, lower means more sensitive. For some of these results: Any top dose called inferred comes from the curve model; the source does not state it. For some of these results: Drugs with an entry number were screened twice under separate entries, and the two screens often disagree.

Key:
BMS-708163 = compound: NC(=O)[C@@H](CCC(F)(F)F)N(Cc1ccc(-c2ncon2)cc1F)S(=O)(=O)c1ccc(Cl)cc1 [BMS-708163]; test: Viability of human cancer cell lines after 72 h of drug (GDSC screen); settings: top dose 5 µM; screen: GDSC drug entry 1072; top dose inferred
Experimental: (§1)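 Human cancer cell lines in 384-well plates, medium with 10% serum, drug for 72 h over a 256-fold dose range (nine 2-fold or five 4-fold steps up to the top dose). Adherent lines were fixed and stained with the nucleic acid dye Syto60, suspension lines read with resazurin; signal relative to control wells, capped at 0 and 100%. One two-parameter sigmoid per drug and line, fitted in a mixed model over all curves with the slope shared within a line.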

PAC-1 = compound: C=CCc1cccc(/C=N/NC(=O)CN2CCN(Cc3ccccc3)CC2)c1O [PAC-1]; test: as above; settings: top dose 2.56 µM
Experimental: as §1

Cell Line | AUC (BMS-708163) | pIC50 (BMS-708163) | AUC (PAC-1) | pIC50 (PAC-1)
PA-TU-8902 (pancreas, adherent) | 0.982 | < 5.30 | 0.979 | < 5.59
OVISE (ovary, adherent) | 0.933 | < 5.30 | 0.957 | < 5.59
HCC38 (breast, adherent) | 0.899 | < 5.30 | 0.889 | < 5.59
SW837 (large intestine, adherent) | 0.979 | < 5.30 | 0.861 | < 5.59
U031 (kidney, adherent) | 0.922 | < 5.30 | 0.815 | 5.83
H290 (mesothelioma, adherent) | 0.979 | < 5.30 | 0.916 | < 5.59
SN12C (kidney, adherent) | 0.971 | < 5.30 | 0.984 | < 5.59
NCI-H2030 (lung adenocarcinoma, adherent) | 0.938 | < 5.30 | 0.897 | < 5.59
KOPN-8 (B-cell leukaemia, suspension) | 0.982 | < 5.30 | 0.779 | 6.05
CaR-1 (large intestine, adherent) | 0.906 | < 5.30 | 0.978 | < 5.59
LN-18 (glioma, adherent) | 0.982 | < 5.30 | 0.981 | < 5.59
SK-N-SH (neuroblastoma, adherent) | 0.963 | < 5.30 | 0.91 | < 5.59
OVCAR-8 (ovary, adherent) | 0.969 | < 5.30 | 0.852 | 5.78
CAL-72 (osteosarcoma, adherent) | 0.983 | < 5.30 | 0.966 | < 5.59
GCT (soft tissue, adherent) | 0.989 | < 5.30 | 0.982 | < 5.59
HN (head and neck, adherent) | 0.981 | < 5.30 | 0.985 | < 5.59
FTC-133 (thyroid, adherent) | 0.932 | < 5.30 | 0.984 | < 5.59
Saos-2 (osteosarcoma, adherent) | 0.978 | < 5.30 | 0.92 | < 5.59
H3118 (head and neck, adherent) | 0.983 | < 5.30 | 0.832 | 5.73
SNU-182 (liver, adherent) | 0.978 | < 5.30 | 0.946 | < 5.59
SW156 (kidney, adherent) | 0.981 | < 5.30 | 0.938 | < 5.59
769-P (kidney, adherent) | 0.959 | < 5.30 | 0.788 | 5.91
OE33 (oesophagus, adherent) | 0.979 | < 5.30 | 0.901 | < 5.59
SW1710 (bladder, adherent) | 0.951 | < 5.30 | 0.895 | < 5.59
RT4 (bladder, adherent) | 0.987 | < 5.30 | 0.985 | < 5.59
NCI-H661 (large cell lung carcinoma, adherent) | 0.933 | < 5.30 | 0.929 | < 5.59

Cell Line | AUC (BMS-708163) | pIC50 (BMS-708163) | AUC (PAC-1) | pIC50 (PAC-1)
JHH-2 (liver, adherent) | 0.981 | < 5.30 | 0.986 | < 5.59
NY (osteosarcoma, adherent) | 0.958 | < 5.30 | 0.966 | < 5.59
LNZTA3WT4 (glioma, adherent) | 0.968 | < 5.30 | 0.974 | < 5.59
DoTc2-4510 (cervix, adherent) | 0.988 | < 5.30 | 0.938 | < 5.59
H2795 (mesothelioma, adherent) | 0.983 | < 5.30 | 0.975 | < 5.59
RERF-GC-1B (stomach, adherent) | 0.949 | < 5.30 | 0.844 | 5.67
SU8686 (pancreas, adherent) | 0.985 | < 5.30 | 0.882 | < 5.59
NCI-H596 (lung adenocarcinoma, adherent) | 0.923 | < 5.30 | 0.884 | < 5.59
MDA-MB-361 (breast, adherent) | 0.945 | < 5.30 | 0.96 | < 5.59
KYSE-220 (oesophagus, adherent) | 0.956 | < 5.30 | 0.973 | < 5.59
RVH-421 (melanoma, adherent) | 0.96 | < 5.30 | 0.975 | < 5.59
H2803 (mesothelioma, adherent) | 0.982 | < 5.30 | 0.921 | < 5.59
MDA-MB-436 (breast, adherent) | 0.962 | < 5.30 | 0.981 | < 5.59
HCC1806 (breast, adherent) | 0.989 | < 5.30 | 0.976 | < 5.59
H2369 (mesothelioma, adherent) | 0.987 | < 5.30 | 0.956 | < 5.59
VM-CUB-1 (bladder, adherent) | 0.989 | < 5.30 | 0.989 | < 5.59
JEG-3 (urogenital system, adherent) | 0.938 | < 5.30 | 0.972 | < 5.59
TT2609-C02 (thyroid, adherent) | 0.986 | < 5.30 | 0.941 | < 5.59
CAL-62 (thyroid, adherent) | 0.95 | < 5.30 | 0.987 | < 5.59
U-118-MG (glioma, adherent) | 0.985 | < 5.30 | 0.977 | < 5.59
RH-41 (rhabdomyosarcoma, adherent) | 0.992 | < 5.30 | 0.885 | 5.70
SW1990 (pancreas, adherent) | 0.985 | < 5.30 | 0.978 | < 5.59
COR-L105 (lung adenocarcinoma, adherent) | 0.857 | < 5.30 | 0.861 | < 5.59
OSC-20 (head and neck, adherent) | 0.981 | < 5.30 | 0.958 | < 5.59
UACC-893 (breast, adherent) | 0.982 | < 5.30 | 0.976 | < 5.59
OAW-42 (ovary, adherent) | 0.97 | < 5.30 | 0.97 | < 5.59

Cell Line | AUC (BMS-708163) | pIC50 (BMS-708163) | AUC (PAC-1) | pIC50 (PAC-1)
BFTC-909 (kidney, adherent) | 0.963 | < 5.30 | 0.988 | < 5.59
NCI-H1688 (small cell lung carcinoma, adherent) | 0.978 | < 5.30 | 0.96 | < 5.59
8305C (thyroid, adherent) | 0.889 | < 5.30 | 0.885 | < 5.59
DAN-G (pancreas, adherent) | 0.992 | < 5.30 | 0.991 | < 5.59
OVCAR-5 (ovary, adherent) | 0.982 | < 5.30 | 0.952 | < 5.59
AU565 (breast, adherent) | 0.876 | < 5.30 | 0.855 | 5.62
H4 (glioma, adherent) | 0.986 | < 5.30 | 0.965 | < 5.59
RERF-LC-MS (lung adenocarcinoma, adherent) | 0.913 | < 5.30 | 0.984 | < 5.59
Daoy (medulloblastoma, adherent) | 0.988 | < 5.30 | 0.835 | 5.83
MS751 (cervix, adherent) | 0.986 | < 5.30 | 0.989 | < 5.59
MHH-ES-1 (Ewing sarcoma, adherent) | 0.956 | < 5.30 | 0.887 | < 5.59
SKN (uterus, adherent) | 0.982 | < 5.30 | 0.974 | < 5.59
EFM-19 (breast, adherent) | 0.972 | < 5.30 | 0.771 | 5.81
AN3-CA (endometrium, adherent) | 0.985 | < 5.30 | 0.953 | < 5.59
T-T (oesophagus, adherent) | 0.939 | < 5.30 | 0.981 | < 5.59
LC-1-sq (lung squamous cell carcinoma, adherent) | 0.979 | < 5.30 | 0.887 | < 5.59
JHU-029 (head and neck, adherent) | 0.959 | < 5.30 | 0.814 | 5.74
HSC-3 (head and neck, adherent) | 0.97 | < 5.30 | 0.987 | < 5.59
NCI-H28 (mesothelioma, adherent) | 0.896 | < 5.30 | 0.968 | < 5.59
SK-MES-1 (lung squamous cell carcinoma, adherent) | 0.933 | < 5.30 | 0.968 | < 5.59
HCC1428 (breast, adherent) | 0.985 | < 5.30 | 0.977 | < 5.59
HEC-1 (endometrium, adherent) | 0.951 | < 5.30 | 0.985 | < 5.59
NCI-H1693 (lung adenocarcinoma, adherent) | 0.976 | < 5.30 | 0.961 | < 5.59
Calu-3 (lung adenocarcinoma, adherent) | 0.936 | < 5.30 | 0.799 | 5.79
